Reference: the supplement of paper PMC3334620
Over roughly 33,000 sequences, “E-score (-0.5 to 0.5)” has its median near -0.021; the highest 2% begin near 0.32. Some of the results follow.

Each sequence was assayed against T1, Zap1 (UniProt P47043) (assay: PBM E-score (8-mer binding enrichment) (E-score (-0.5 to 0.5)); higher = stronger / more preferred TF binding; most listed sequences are background and not binding sites). Settings: protein concentration: 200 nM; construct: GST-full length.
T1 sequence: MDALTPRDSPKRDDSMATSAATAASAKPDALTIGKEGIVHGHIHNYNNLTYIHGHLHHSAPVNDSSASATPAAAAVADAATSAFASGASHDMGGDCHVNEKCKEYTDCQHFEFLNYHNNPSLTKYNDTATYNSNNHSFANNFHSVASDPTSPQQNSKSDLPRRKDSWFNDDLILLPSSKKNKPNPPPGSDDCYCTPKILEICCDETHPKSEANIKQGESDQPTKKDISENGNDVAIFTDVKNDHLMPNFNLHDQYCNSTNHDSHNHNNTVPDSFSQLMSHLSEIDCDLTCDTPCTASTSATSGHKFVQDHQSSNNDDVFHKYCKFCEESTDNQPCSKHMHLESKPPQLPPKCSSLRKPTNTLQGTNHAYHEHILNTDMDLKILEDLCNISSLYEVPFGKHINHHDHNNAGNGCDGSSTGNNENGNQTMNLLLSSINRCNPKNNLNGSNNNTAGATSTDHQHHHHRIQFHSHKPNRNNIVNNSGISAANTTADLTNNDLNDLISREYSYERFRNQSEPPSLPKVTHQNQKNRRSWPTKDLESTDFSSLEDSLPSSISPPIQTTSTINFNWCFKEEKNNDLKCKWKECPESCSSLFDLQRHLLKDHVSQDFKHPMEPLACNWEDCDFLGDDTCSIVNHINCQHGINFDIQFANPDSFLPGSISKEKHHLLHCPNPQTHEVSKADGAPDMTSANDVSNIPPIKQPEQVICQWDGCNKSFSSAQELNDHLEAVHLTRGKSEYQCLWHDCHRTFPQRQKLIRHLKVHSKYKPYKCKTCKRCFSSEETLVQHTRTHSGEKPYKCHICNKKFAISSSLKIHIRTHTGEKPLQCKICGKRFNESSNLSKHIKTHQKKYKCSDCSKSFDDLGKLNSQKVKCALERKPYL
Outline: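 Yeast transcription factors, full-length or as DNA-binding domains, were expressed with a GST tag using PURExpress in vitro transcription/translation. At about 100-200 nM they were applied to universal all-10-mer Agilent arrays, double-stranded by primer extension on fresh or once-stripped slides. Fluorescent anti-GST detected bound protein, and masliner normalised the scans. E-scores for ungapped eight-base words, pooled with reverse complements, came from the Universal PBM Analysis Suite.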

Sequence | PBM E-score
AATATAGA | 0.0809
AAACTCCT | -0.301
AGCATCGG | -0.283
GGTTTCCA | -0.00766
CGTTAGCA | 0.0484
GACGAAAA | 0.279
ACTGCTAC | -0.0295
AGTTAGTA | -0.00813
AGGATCTG | -0.242
CTTAGCCC | -0.188
AGCCGGCT | -0.327
GTTGTTAA | 0.253
CTTAGCAC | -0.0368
GCTATAAA | -0.00454
AGGTACCT | 0.443
ACGTACCG | -0.111
CGTTCGTA | 0.00932
GAATGATC | 0.0795
CCTGAATC | 0.00265
TATGGAGA | 0.0344
ACCATACA | 0.0885
GCTAAGAA | -0.123
CGTAAGAG | -0.151
CAATATGG | 0.1
AACCTACG | 0.123

Sequence | PBM E-score
GTTTTGGA | 0.21
CTCGACAA | -0.0199
ACCCGTGG | 0.108
ATCGATAA | -0.0514
CAGAGCCA | -0.0889
ATAGATGA | -0.0652
ATCCTTAC | -0.0987
AGGCTTTA | -0.179
CGGGCAAA | 0.0441
ACACGGAA | 0.132
GGTTAGTA | 0.325
AAAAGTAC | 0.262
ATGTTACA | 0.028
CCAGATTA | 0.18
ACCCCTTG | 0.279
ACTAGTTC | 0.0802
ATATACAG | 0.146
TAAGTTCA | 0.0427
CACTGTTC | -0.108
CTAGCAGC | -0.156
CAGCTTGC | -0.144
GCGAACGC | -0.253
GCAGTCTA | -0.262
GCATCGTA | 0.00397
AGTTCGGG | 0.122

Sequence | PBM E-score
ATCTGCAG | -0.071
CGCAGTAA | 0.0339
GCAGCTAA | -0.0888
GAAATTAC | 0.18
CGCGACCG | 0.228
GAGAGCGC | -0.341
ACGCCTAT | -0.255
TCGACTCA | -0.0722
CAAGCCGG | -0.0311
AAGCTTTC | 0.0356
TCAGCAAA | 0.141
ATTTCCTA | 0.082
AAGTTTCT | 0.125
ATCCGTCA | -0.0725
ACGGGCGG | -0.16
CTGACTGC | -0.122
GTGGAGGA | -0.0329
GACACGCC | -0.14
CTCAGTCA | -0.12
AGCTGGTA | -0.149
GGAAATTA | 0.153
ATTAGAGC | -0.0383
ACATCGAT | 0.137
TACTCAGA | 0.037
ACTAAGGA | -0.182

Sequence | PBM E-score
TCGCCCGA | -0.206
CGGATAGC | -0.0817
CCGTCAAA | -0.0822
GATTTGAA | 0.018
ACAGTCTG | -0.103
GAGAGCCC | -0.309
GAGCCAGA | -0.0646
CAAATTTC | 0.0744
TACGATAA | 0.12
AACTCGCT | 0.0379
GACCACTC | 0.0556
AGCTCGCA | -0.204
ACATACCG | -0.00488
AGCATCAT | -0.0814
AAAGGAAG | -0.153
GCCTGATA | -0.177
CTCGCGAA | -0.0511
GTACCTCA | 0.283
CTAGGCAC | -0.107
ATAAATAA | 0.282
CAATGGAA | 0.0791
GTGAGCCA | -0.0377
CCTCTTCA | 0.0402
ATAAGTAA | 0.226
CGGGATCC | -0.0153

Sequence | PBM E-score
CTTTACTA | 0.162
CCGTGAAA | 0.188
GCCCCTGA | -0.0457
AACTTGCA | -0.105
ACGGTTTG | 0.0504
AGATTATG | 0.113
AATTAGCC | -0.114
AGCGTGGG | -0.176
CACATGCG | -0.0352
ACATCATA | 0.123
CCATCCCC | -0.228
TCGTCACA | -0.0338
AGAAAAAC | 0.158
CTCTTAGA | -0.00743
CCGGTCCC | 0.0065
ATTACGAG | 0.0606
TACCAAAA | 0.161
CATTCTTC | -0.0631
GTAACGAC | 0.105
CACTAGCA | -0.00655
ATGGGCTG | -0.246
AGATACGA | 0.122
CAGGGACG | -0.161
TCGGCCAA | -0.107
CGAATGGC | 0.0541

Sequence | PBM E-score
CCCACTGC | -0.119
GGCCACGA | 0.126
CAGCCCAA | -0.0128
CGAACCGA | 0.0656
AGTGGCGG | -0.0506
TAGCTCCA | -0.208
TCGTGCCA | -0.186
CCACTTTC | -0.101
AATCACCA | 0.214
AACTAAAT | 0.0365
ACAGGCCC | -0.203
TAGATCCA | -0.0356
CTGTGGCA | -0.243
GGGGCCGA | -0.214
ACTATCAC | 0.144
AAGGTACT | 0.33
TCGCCACA | -0.04
ACGGGGGC | -0.272
CGTGATTC | -0.158
CCTTTGAA | 0.108
CATAGTAA | 0.217
ACTCCCCT | -0.137
CGCCACAA | 0.141
CAAAGTGC | -0.0833
GATCCTAC | -0.0307

Sequence | PBM E-score
CGCTGGTC | -0.0985
ATCTCTGG | -0.106
AGGTGTAA | 0.0658
CCAGACAG | -0.0456
TGGTGACA | 0.0463
ATCGCGAT | 0.113
ACTCGTAA | 0.232
CCTGTTAG | 0.14
ATCTGGCG | -0.115
GAGGCGGA | -0.283
CCAACAGC | -0.0518
AAGTACCC | 0.34
CATATATC | 0.0886
GACCTTAC | 0.13
CGTGAATA | -0.137
CCCGGTGC | -0.158
CCCTATAC | -0.0118
ATTGGCGG | -0.0834
CGGAAGCA | 0.0721
ACCCCAAG | 0.311
ATCGGACA | 0.0708
CGGATTAG | -0.123
